The source of these data is publication PMC9911399, “Two distinct binding modes provide the RNA-binding protein RbFox with extraordinary sequence specificity”.

First the molecules themselves.
T1: RBFOX1 RRM (Homo sapiens, UniProt Q9NWB1 109-208)
T1 sequence: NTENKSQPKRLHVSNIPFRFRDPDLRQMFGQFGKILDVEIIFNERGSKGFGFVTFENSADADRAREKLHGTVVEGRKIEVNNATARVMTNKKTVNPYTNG

B1: ACUUUGU (DNA:RNA)
RNA: GGGAGACCGGAAUUCAGAUUGUCCACUUUGUUUAAAUCCCGUCGUAGCCACCA
DNA 1: CAATCTGAATTCCGGTCTCCC
DNA 2: TGGTGGCTACGACGGGATT
B2: GUAUAUG (DNA:RNA)
RNA: B1 RNA with A25G, C26U, U27A, U29A, G30U, U31G
DNA 1: CAATCTGAATTCCGGTCTCCC
DNA 2: TGGTGGCTACGACGGGATT
B3: CAAAUAC (DNA:RNA)
RNA: B1 RNA with A25C, C26A, U27A, U28A, G30A, U31C
DNA 1: CAATCTGAATTCCGGTCTCCC
DNA 2: TGGTGGCTACGACGGGATT
B4: UGGCUAC (DNA:RNA)
RNA: B1 RNA with A25U, C26G, U27G, U28C, G30A, U31C
DNA 1: CAATCTGAATTCCGGTCTCCC
DNA 2: TGGTGGCTACGACGGGATT
B5: GCGUAUC (DNA:RNA)
RNA: B1 RNA with A25G, U27G, U29A, G30U, U31C
DNA 1: CAATCTGAATTCCGGTCTCCC
DNA 2: TGGTGGCTACGACGGGATT
B6: UUGACUC (DNA:RNA)
RNA: GGGAGACCGGAAUUCAGAUUGUCCUUGACUCUUAAAUCCCGUCGUAGCCACCA
DNA 1: CAATCTGAATTCCGGTCTCCC
DNA 2: TGGTGGCTACGACGGGATT
B7: AGGAGUA (DNA:RNA)
RNA: B6 RNA with U25A, U26G, C29G, C31A
DNA 1: CAATCTGAATTCCGGTCTCCC
DNA 2: TGGTGGCTACGACGGGATT
B8: GGGCACU (DNA:RNA)
RNA: B1 RNA with A25G, C26G, U27G, U28C, U29A, G30C
DNA 1: CAATCTGAATTCCGGTCTCCC
DNA 2: TGGTGGCTACGACGGGATT
B9: CGUACAU (DNA:RNA)
RNA: B1 RNA with A25C, C26G, U28A, U29C, G30A
DNA 1: CAATCTGAATTCCGGTCTCCC
DNA 2: TGGTGGCTACGACGGGATT
B10: CUACCCC (DNA:RNA)
RNA: B6 RNA with U25C, G27A, A28C, U30C
DNA 1: CAATCTGAATTCCGGTCTCCC
DNA 2: TGGTGGCTACGACGGGATT
B11: ACCUGCA (DNA:RNA)
RNA: B1 RNA with U27C, U29G, G30C, U31A
DNA 1: CAATCTGAATTCCGGTCTCCC
DNA 2: TGGTGGCTACGACGGGATT
B12: CCACUAG (DNA:RNA)
RNA: B1 RNA with A25C, U27A, U28C, G30A, U31G
DNA 1: CAATCTGAATTCCGGTCTCCC
DNA 2: TGGTGGCTACGACGGGATT
B13: AAGCUUU (DNA:RNA)
RNA: B1 RNA with C26A, U27G, U28C, G30U
DNA 1: CAATCTGAATTCCGGTCTCCC
DNA 2: TGGTGGCTACGACGGGATT
B14: UCCGUUU (DNA:RNA)
RNA: B1 RNA with A25U, U27C, U28G, G30U
DNA 1: CAATCTGAATTCCGGTCTCCC
DNA 2: TGGTGGCTACGACGGGATT
B15: GACGUCG (DNA:RNA)
RNA: B1 RNA with A25G, C26A, U27C, U28G, G30C, U31G
DNA 1: CAATCTGAATTCCGGTCTCCC
DNA 2: TGGTGGCTACGACGGGATT
B16: AGAAAUC (DNA:RNA)
RNA: B6 RNA with U25A, U26G, G27A, C29A
DNA 1: CAATCTGAATTCCGGTCTCCC
DNA 2: TGGTGGCTACGACGGGATT
B17: AUCCCGA (DNA:RNA)
RNA: B1 RNA with C26U, U27C, U28C, U29C, U31A
DNA 1: CAATCTGAATTCCGGTCTCCC
DNA 2: TGGTGGCTACGACGGGATT
B18: UGCAAAC (DNA:RNA)
RNA: B6 RNA with U26G, G27C, C29A, U30A
DNA 1: CAATCTGAATTCCGGTCTCCC
DNA 2: TGGTGGCTACGACGGGATT
B19: UUCAUUG (DNA:RNA)
RNA: B6 RNA with G27C, C29U, C31G
DNA 1: CAATCTGAATTCCGGTCTCCC
DNA 2: TGGTGGCTACGACGGGATT
B20: AGACUGA (DNA:RNA)
RNA: B1 RNA with C26G, U27A, U28C, U31A
DNA 1: CAATCTGAATTCCGGTCTCCC
DNA 2: TGGTGGCTACGACGGGATT
B21: ACAAGAC (DNA:RNA)
RNA: B1 RNA with U27A, U28A, U29G, G30A, U31C
DNA 1: CAATCTGAATTCCGGTCTCCC
DNA 2: TGGTGGCTACGACGGGATT
B22: GCCUCGA (DNA:RNA)
RNA: B1 RNA with A25G, U27C, U29C, U31A
DNA 1: CAATCTGAATTCCGGTCTCCC
DNA 2: TGGTGGCTACGACGGGATT
B23: GUUACGG (DNA:RNA)
RNA: B6 RNA with U25G, G27U, U30G, C31G
DNA 1: CAATCTGAATTCCGGTCTCCC
DNA 2: TGGTGGCTACGACGGGATT
B24: AGCGAUU (DNA:RNA)
RNA: B1 RNA with C26G, U27C, U28G, U29A, G30U
DNA 1: CAATCTGAATTCCGGTCTCCC
DNA 2: TGGTGGCTACGACGGGATT
B25: UGUUUCU (DNA:RNA)
RNA: B1 RNA with A25U, C26G, G30C
DNA 1: CAATCTGAATTCCGGTCTCCC
DNA 2: TGGTGGCTACGACGGGATT
B26: CAGACAU (DNA:RNA)
RNA: B6 RNA with U25C, U26A, U30A, C31U
DNA 1: CAATCTGAATTCCGGTCTCCC
DNA 2: TGGTGGCTACGACGGGATT
B27: UUGUGCG (DNA:RNA)
RNA: B6 RNA with A28U, C29G, U30C, C31G
DNA 1: CAATCTGAATTCCGGTCTCCC
DNA 2: TGGTGGCTACGACGGGATT
B28: CCGCGCC (DNA:RNA)
RNA: B6 RNA with U25C, U26C, A28C, C29G, U30C
DNA 1: CAATCTGAATTCCGGTCTCCC
DNA 2: TGGTGGCTACGACGGGATT
B29: CCAAACG (DNA:RNA)
RNA: B1 RNA with A25C, U27A, U28A, U29A, G30C, U31G
DNA 1: CAATCTGAATTCCGGTCTCCC
DNA 2: TGGTGGCTACGACGGGATT
B30: AAAUGUC (DNA:RNA)
RNA: B1 RNA with C26A, U27A, U29G, G30U, U31C
DNA 1: CAATCTGAATTCCGGTCTCCC
DNA 2: TGGTGGCTACGACGGGATT
B31: GUUUGCC (DNA:RNA)
RNA: B1 RNA with A25G, C26U, U29G, G30C, U31C
DNA 1: CAATCTGAATTCCGGTCTCCC
DNA 2: TGGTGGCTACGACGGGATT

Changes are numbered by the printed parent chain; changes in the protein carry UniProt numbers. The list shows a part of the results.

The assay addresses T1, RBFOX1 RRM. Description: EMSA; HiTS-Eq, 1 nM pool, 10 min; buffer printed only for the single-RNA assays: 10 mM Tris pH 7.5, 150 mM NaCl, 3.4 mM EDTA, 0.001% NP-40, 30 C. The conditions noted are these: tags: His6 N-terminal (pET28a); label: 5' 32P. An outline of the steps: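 Purified wild-type or mutant RbFox RRM at increasing concentrations was equilibrated with 1 nM of 5′-radiolabelled RNA carrying 7 randomized nucleotides for 10 min in 50 µL. Unbound RNA was separated by 8% native PAGE and sequenced. Relative association constants came from read-count changes of each RNA species compared with the control reaction, normalised to the cognate motif.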
B1: the binding signal is 0.0121 KA relative to UGCAUGU.
B2: the binding signal was 0.00924 KA relative to UGCAUGU.
To B3 belongs 0.00138 KA relative to UGCAUGU; to B4, 0.0274 KA relative to UGCAUGU.
B5: the binding signal is 0.00852 KA relative to UGCAUGU.
To B6 belongs 0.0139 KA relative to UGCAUGU; to B7, 0.00992 KA relative to UGCAUGU; to B8, 0.0241 KA relative to UGCAUGU.
In the case of B9, the binding signal was 0.0031 KA relative to UGCAUGU.
Then B10, with 0.00233 KA relative to UGCAUGU.
Then B11, with 0.0144 KA relative to UGCAUGU; and B12, with 0.00444 KA relative to UGCAUGU; and B13, with 0.00565 KA relative to UGCAUGU.
On to B14, for which the binding signal is 0.00747 KA relative to UGCAUGU.
As to B15, the binding signal is 0.0208 KA relative to UGCAUGU.
Then B16, with 0.0038 KA relative to UGCAUGU.
B17: the binding signal is 0.00452 KA relative to UGCAUGU.
As for B18, the binding signal is 0.00831 KA relative to UGCAUGU.
To B19 belongs 0.0114 KA relative to UGCAUGU; to B20, 0.0138 KA relative to UGCAUGU; to B21, 0.00266 KA relative to UGCAUGU.
Then B22, with 0.013 KA relative to UGCAUGU; and B23, with 0.00878 KA relative to UGCAUGU.
Take B24: the binding signal is 0.00915 KA relative to UGCAUGU.
Then B25, with 0.0212 KA relative to UGCAUGU.
Then B26, with 0.00531 KA relative to UGCAUGU; and B27, with 0.0268 KA relative to UGCAUGU; and B28, with 0.00748 KA relative to UGCAUGU.
To B29 belongs 0.00359 KA relative to UGCAUGU; to B30, 0.00407 KA relative to UGCAUGU.
On to B31, for which the binding signal is 0.0224 KA relative to UGCAUGU.
